# Source: publication PMC12820563
# This is one part of the list. The list includes weakly bound sequences.
# Molecular target: T1, MBP-FoxP3dN (UniProt Q99JB6)
# T1 sequence: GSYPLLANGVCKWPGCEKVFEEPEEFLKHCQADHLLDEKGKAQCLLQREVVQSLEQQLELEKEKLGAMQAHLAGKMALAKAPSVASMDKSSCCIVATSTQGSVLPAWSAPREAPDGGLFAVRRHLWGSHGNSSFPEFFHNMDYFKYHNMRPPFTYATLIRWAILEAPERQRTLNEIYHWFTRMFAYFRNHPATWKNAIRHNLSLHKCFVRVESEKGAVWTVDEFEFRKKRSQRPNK
# Assay: PD-seq (MBP pull-down with sequencing)
# Conditions: 20 mM Tris-HCl pH 7.5, 100 mM NaCl, 1.5 mM MgCl2, 0.4 uM protein, 0.1 uM dsDNA library, 30 min, room temperature, amylose pull-down; high values mean tight binding; double strand, one strand shown
row,Sequence,binding signal (RPM ratio (pull-down/input))
1,GATGATTGTTCTCCCAGCTGATGAATTCGAGAGTTCGAGTAAACAAATTTTCCTAATCTTTCTGTTCAAGCGCCATCTAC,0.381
2,GATGATTGTTCTCCCAGCTGATGAATTAACGAGCTCGAGTAAACAAATTTTCCTAATCTTTCTGTTCAAGCGCCATCTAC,0.193
3,GATGATTGTTCTCCCAGCTGATGAATTCGGTGTTTCGAGTAAACAAATTTTCCTAATCTTTCTGTTCAAGCGCCATCTAC,1.99
4,GATGATTGTTCTCCCAGCTGATGAATTAAGCAAATCGAGTAAACAAATTTTCCTAATCTTTCTGTTCAAGCGCCATCTAC,0.581
5,GATGATTGTTCTCCCAGCTGATGAATTCGCACGATCGAGTAAACAAATTTTCCTAATCTTTCTGTTCAAGCGCCATCTAC,0.335
6,GATGATTGTTCTCCCAGCTGATGAATTGTCGGACTCGAGTAAACAAATTTTCCTAATCTTTCTGTTCAAGCGCCATCTAC,0.306
7,GATGATTGTTCTCCCAGCTGATGAATTAGGGTGATCGAGTAAACAAATTTTCCTAATCTTTCTGTTCAAGCGCCATCTAC,0.498
8,GATGATTGTTCTCCCAGCTGATGAATTGAAAAATTCGAGTAAACAAATTTTCCTAATCTTTCTGTTCAAGCGCCATCTAC,0.21
9,GATGATTGTTCTCCCAGCTGATGAATTATAAAAATCGAGTAAACAAATTTTCCTAATCTTTCTGTTCAAGCGCCATCTAC,0.211
10,GATGATTGTTCTCCCAGCTGATGAATTATAATTATCGAGTAAACAAATTTTCCTAATCTTTCTGTTCAAGCGCCATCTAC,1.52
11,GATGATTGTTCTCCCAGCTGATGAATTGCTAGGTTCGAGTAAACAAATTTTCCTAATCTTTCTGTTCAAGCGCCATCTAC,0.589
12,GATGATTGTTCTCCCAGCTGATGAATTGCGCGATTCGAGTAAACAAATTTTCCTAATCTTTCTGTTCAAGCGCCATCTAC,1.82
13,GATGATTGTTCTCCCAGCTGATGAATTTTTCAGATCGAGTAAACAAATTTTCCTAATCTTTCTGTTCAAGCGCCATCTAC,0.164
14,GATGATTGTTCTCCCAGCTGATGAATTCGGACTCTCGAGTAAACAAATTTTCCTAATCTTTCTGTTCAAGCGCCATCTAC,1.44
15,GATGATTGTTCTCCCAGCTGATGAATTGTTGCTGTCGAGTAAACAAATTTTCCTAATCTTTCTGTTCAAGCGCCATCTAC,2.32
16,GATGATTGTTCTCCCAGCTGATGAATTTTAGTGATCGAGTAAACAAATTTTCCTAATCTTTCTGTTCAAGCGCCATCTAC,0.559
17,GATGATTGTTCTCCCAGCTGATGAATTAGATGTGTCGAGTAAACAAATTTTCCTAATCTTTCTGTTCAAGCGCCATCTAC,2.71
18,GATGATTGTTCTCCCAGCTGATGAATTGTCTTATTCGAGTAAACAAATTTTCCTAATCTTTCTGTTCAAGCGCCATCTAC,0.796
19,GATGATTGTTCTCCCAGCTGATGAATTAAACGGATCGAGTAAACAAATTTTCCTAATCTTTCTGTTCAAGCGCCATCTAC,0.213
20,GATGATTGTTCTCCCAGCTGATGAATTTAGCGGCTCGAGTAAACAAATTTTCCTAATCTTTCTGTTCAAGCGCCATCTAC,0.792
21,GATGATTGTTCTCCCAGCTGATGAATTATTCAAGTCGAGTAAACAAATTTTCCTAATCTTTCTGTTCAAGCGCCATCTAC,0.3

row,Sequence,binding signal (RPM ratio (pull-down/input))
1,GATGATTGTTCTCCCAGCTGATGAATTACAGTTCTCGAGTAAACAAATTTTCCTAATCTTTCTGTTCAAGCGCCATCTAC,0.802
2,GATGATTGTTCTCCCAGCTGATGAATTATAGTTTTCGAGTAAACAAATTTTCCTAATCTTTCTGTTCAAGCGCCATCTAC,0.824
3,GATGATTGTTCTCCCAGCTGATGAATTGACGACCTCGAGTAAACAAATTTTCCTAATCTTTCTGTTCAAGCGCCATCTAC,0.316
4,GATGATTGTTCTCCCAGCTGATGAATTATGCTATTCGAGTAAACAAATTTTCCTAATCTTTCTGTTCAAGCGCCATCTAC,4.21
5,GATGATTGTTCTCCCAGCTGATGAATTTTTCGGTTCGAGTAAACAAATTTTCCTAATCTTTCTGTTCAAGCGCCATCTAC,0.292
6,GATGATTGTTCTCCCAGCTGATGAATTTACTACTTCGAGTAAACAAATTTTCCTAATCTTTCTGTTCAAGCGCCATCTAC,0.581
7,GATGATTGTTCTCCCAGCTGATGAATTCGTGGGATCGAGTAAACAAATTTTCCTAATCTTTCTGTTCAAGCGCCATCTAC,0.367
8,GATGATTGTTCTCCCAGCTGATGAATTGAGACAGTCGAGTAAACAAATTTTCCTAATCTTTCTGTTCAAGCGCCATCTAC,0.393
9,GATGATTGTTCTCCCAGCTGATGAATTTTGCTTGTCGAGTAAACAAATTTTCCTAATCTTTCTGTTCAAGCGCCATCTAC,5.89
10,GATGATTGTTCTCCCAGCTGATGAATTCTTCTAATCGAGTAAACAAATTTTCCTAATCTTTCTGTTCAAGCGCCATCTAC,0.276
11,GATGATTGTTCTCCCAGCTGATGAATTGGGGTGATCGAGTAAACAAATTTTCCTAATCTTTCTGTTCAAGCGCCATCTAC,0.475
12,GATGATTGTTCTCCCAGCTGATGAATTCACCCTTTCGAGTAAACAAATTTTCCTAATCTTTCTGTTCAAGCGCCATCTAC,0.325
13,GATGATTGTTCTCCCAGCTGATGAATTAGTAGTGTCGAGTAAACAAATTTTCCTAATCTTTCTGTTCAAGCGCCATCTAC,2.76
14,GATGATTGTTCTCCCAGCTGATGAATTGCATTGGTCGAGTAAACAAATTTTCCTAATCTTTCTGTTCAAGCGCCATCTAC,2.1
15,GATGATTGTTCTCCCAGCTGATGAATTTCGACTGTCGAGTAAACAAATTTTCCTAATCTTTCTGTTCAAGCGCCATCTAC,0.877
16,GATGATTGTTCTCCCAGCTGATGAATTGGGGCTCTCGAGTAAACAAATTTTCCTAATCTTTCTGTTCAAGCGCCATCTAC,0.383
17,GATGATTGTTCTCCCAGCTGATGAATTAAGGGCGTCGAGTAAACAAATTTTCCTAATCTTTCTGTTCAAGCGCCATCTAC,0.508
18,GATGATTGTTCTCCCAGCTGATGAATTCTAGTTCTCGAGTAAACAAATTTTCCTAATCTTTCTGTTCAAGCGCCATCTAC,0.594
19,GATGATTGTTCTCCCAGCTGATGAATTGTTGGTATCGAGTAAACAAATTTTCCTAATCTTTCTGTTCAAGCGCCATCTAC,4.81
20,GATGATTGTTCTCCCAGCTGATGAATTTTAAGTCTCGAGTAAACAAATTTTCCTAATCTTTCTGTTCAAGCGCCATCTAC,0.362
21,GATGATTGTTCTCCCAGCTGATGAATTCTTGAACTCGAGTAAACAAATTTTCCTAATCTTTCTGTTCAAGCGCCATCTAC,0.217

row,Sequence,binding signal (RPM ratio (pull-down/input))
1,GATGATTGTTCTCCCAGCTGATGAATTTTTTCTATCGAGTAAACAAATTTTCCTAATCTTTCTGTTCAAGCGCCATCTAC,0.262
2,GATGATTGTTCTCCCAGCTGATGAATTTTGCTAGTCGAGTAAACAAATTTTCCTAATCTTTCTGTTCAAGCGCCATCTAC,2.86
3,GATGATTGTTCTCCCAGCTGATGAATTGCTGACTTCGAGTAAACAAATTTTCCTAATCTTTCTGTTCAAGCGCCATCTAC,0.938
4,GATGATTGTTCTCCCAGCTGATGAATTATTACTATCGAGTAAACAAATTTTCCTAATCTTTCTGTTCAAGCGCCATCTAC,0.535
5,GATGATTGTTCTCCCAGCTGATGAATTTATGCTATCGAGTAAACAAATTTTCCTAATCTTTCTGTTCAAGCGCCATCTAC,1.46
6,GATGATTGTTCTCCCAGCTGATGAATTAGGGGGGTCGAGTAAACAAATTTTCCTAATCTTTCTGTTCAAGCGCCATCTAC,0.692
7,GATGATTGTTCTCCCAGCTGATGAATTGGTTGAGTCGAGTAAACAAATTTTCCTAATCTTTCTGTTCAAGCGCCATCTAC,0.683
8,GATGATTGTTCTCCCAGCTGATGAATTACATCACTCGAGTAAACAAATTTTCCTAATCTTTCTGTTCAAGCGCCATCTAC,0.786
9,GATGATTGTTCTCCCAGCTGATGAATTGGAACTCTCGAGTAAACAAATTTTCCTAATCTTTCTGTTCAAGCGCCATCTAC,0.343
10,GATGATTGTTCTCCCAGCTGATGAATTATAAGACTCGAGTAAACAAATTTTCCTAATCTTTCTGTTCAAGCGCCATCTAC,0.27
11,GATGATTGTTCTCCCAGCTGATGAATTCGATACCTCGAGTAAACAAATTTTCCTAATCTTTCTGTTCAAGCGCCATCTAC,0.674
12,GATGATTGTTCTCCCAGCTGATGAATTCGGCGACTCGAGTAAACAAATTTTCCTAATCTTTCTGTTCAAGCGCCATCTAC,1.54
13,GATGATTGTTCTCCCAGCTGATGAATTCACTTTTTCGAGTAAACAAATTTTCCTAATCTTTCTGTTCAAGCGCCATCTAC,0.363
14,GATGATTGTTCTCCCAGCTGATGAATTGTTGAGCTCGAGTAAACAAATTTTCCTAATCTTTCTGTTCAAGCGCCATCTAC,0.598
15,GATGATTGTTCTCCCAGCTGATGAATTCCCAGTCTCGAGTAAACAAATTTTCCTAATCTTTCTGTTCAAGCGCCATCTAC,0.283
16,GATGATTGTTCTCCCAGCTGATGAATTAGCCTTTTCGAGTAAACAAATTTTCCTAATCTTTCTGTTCAAGCGCCATCTAC,1.41
17,GATGATTGTTCTCCCAGCTGATGAATTCCCGCTGTCGAGTAAACAAATTTTCCTAATCTTTCTGTTCAAGCGCCATCTAC,0.339
18,GATGATTGTTCTCCCAGCTGATGAATTATCAGACTCGAGTAAACAAATTTTCCTAATCTTTCTGTTCAAGCGCCATCTAC,0.214
19,GATGATTGTTCTCCCAGCTGATGAATTACGGGAATCGAGTAAACAAATTTTCCTAATCTTTCTGTTCAAGCGCCATCTAC,0.263
20,GATGATTGTTCTCCCAGCTGATGAATTAGGGACCTCGAGTAAACAAATTTTCCTAATCTTTCTGTTCAAGCGCCATCTAC,0.304
21,GATGATTGTTCTCCCAGCTGATGAATTATACGCATCGAGTAAACAAATTTTCCTAATCTTTCTGTTCAAGCGCCATCTAC,1.13
